Here are results for 86 compounds from publication PMC4336329 (PLoS ONE, 2015).

Each structure is given as a SMILES string. Hit rate of the full screen: of about 310,000 compounds, about 14,000 (4.5%) showed an effect of 50% or more. The effect is printed as a negative number. This is one part of the list.
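Also: peak tail current of the secondary pulse compared with the same well before compound.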

The target in this assay is human ether-à-go-go-related gene (hERG) potassium channel (human, UniProt Q12809). Nature of the assay: primary screen, population patch clamp on CHO cells stably expressing hERG.
human ether-à-go-go-related gene (hERG) potassium channel, sequence (Q12809 whole entry, looked up): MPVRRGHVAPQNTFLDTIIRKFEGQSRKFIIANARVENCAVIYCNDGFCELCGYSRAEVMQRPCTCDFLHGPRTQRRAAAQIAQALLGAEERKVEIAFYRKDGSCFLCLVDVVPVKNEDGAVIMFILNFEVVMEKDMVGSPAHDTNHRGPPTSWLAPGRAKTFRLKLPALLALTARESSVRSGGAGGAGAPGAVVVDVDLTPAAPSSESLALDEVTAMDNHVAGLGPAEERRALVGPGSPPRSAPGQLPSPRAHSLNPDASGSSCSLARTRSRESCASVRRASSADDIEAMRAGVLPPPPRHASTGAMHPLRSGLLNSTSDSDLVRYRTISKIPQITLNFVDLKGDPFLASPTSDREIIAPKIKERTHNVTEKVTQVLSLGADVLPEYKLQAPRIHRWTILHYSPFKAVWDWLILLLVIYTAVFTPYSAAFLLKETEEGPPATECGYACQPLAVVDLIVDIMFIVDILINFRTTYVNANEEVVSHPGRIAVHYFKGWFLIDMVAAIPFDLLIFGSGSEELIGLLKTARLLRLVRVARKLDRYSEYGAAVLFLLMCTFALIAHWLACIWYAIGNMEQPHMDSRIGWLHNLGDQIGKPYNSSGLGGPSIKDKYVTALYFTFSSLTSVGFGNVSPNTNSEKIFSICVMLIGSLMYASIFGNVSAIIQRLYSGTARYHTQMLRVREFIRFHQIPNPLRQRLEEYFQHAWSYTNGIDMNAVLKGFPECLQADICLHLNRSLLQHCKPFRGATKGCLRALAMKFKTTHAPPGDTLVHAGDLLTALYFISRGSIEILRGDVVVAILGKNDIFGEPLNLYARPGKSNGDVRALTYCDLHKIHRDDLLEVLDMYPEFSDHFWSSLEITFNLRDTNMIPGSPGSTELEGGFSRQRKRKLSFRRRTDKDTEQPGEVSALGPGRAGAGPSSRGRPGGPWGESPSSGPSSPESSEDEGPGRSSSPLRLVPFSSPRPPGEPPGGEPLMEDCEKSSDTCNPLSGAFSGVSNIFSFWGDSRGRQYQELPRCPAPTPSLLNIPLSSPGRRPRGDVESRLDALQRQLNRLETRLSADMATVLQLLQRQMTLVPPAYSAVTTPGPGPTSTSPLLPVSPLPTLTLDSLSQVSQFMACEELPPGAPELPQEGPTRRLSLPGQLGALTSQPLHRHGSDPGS
For the compound `Fc1ccc(OCCOCCNCC2CCCO2)cc1` (centres unmarked), the “hERG current change (%, negative = inhibition) at 10uM” value is on record as -7.19%.
With `COCCCn1c(SCC(=O)c2ccccc2)nc2ccccc2c1=O`, the “hERG current change (%, negative = inhibition) at 10uM” value came out at 13%.
Next, `Cc1ccc(C(=O)N[C@H](C(=O)OCC(=O)c2ccc[nH]2)C(C)C)cc1`: -16.8%; `COc1ccc(OC)c(NC(=O)Cc2ccc(NC3=NC4CS(=O)(=O)CC4S3)cc2)c1` (centres unmarked): 11.4%.
In the case of `CC1(C)Cc2c(c(N3CCCC3)nc3sc(C(=O)Nc4ccccc4)c(N)c23)CO1`, the “hERG current change (%, negative = inhibition) at 10uM” value was found to be 17.6%.
As for `CN(C(=O)Cn1cc([N+](=O)[O-])ccc1=O)C1CCCCC1`, the figure is 8.32%.
With `N#C/C(=C\c1ccc(C#N)cc1)C(=O)N1CCCC1`, the “hERG current change (%, negative = inhibition) at 10uM” value came to 7.75%.
Next, `CC(=O)c1cnc(Nc2cccc(Cl)c2Cl)s1`: 11.6%.
Next, `Cc1cccc(-n2c(Cc3cc(=O)[nH]c(=O)[nH]3)nnc2SCC(=O)N2CCCCC2)c1`: -5.38%; `COc1nnc(-c2ccc(N3CCOCC3)c(NC(=O)C3CCCCC3)c2)c2ccccc12`: -37.3%.
With `CCOC(=O)N1CCN(C(=O)C2CCCCC2)CC1`, the “hERG current change (%, negative = inhibition) at 10uM” value worked out at 7.06%.
Next, `O=C(NC12CC3CC(CC(C3)C1)C2)N1CCN(c2ccccc2)CC1`: -11%.
For the compound `Cc1cccc(N(C)S(=O)(=O)c2cc3c(cc2C)n(C)c(=O)c(=O)n3C)c1`, the “hERG current change (%, negative = inhibition) at 10uM” value is recorded as -27.3%.
As to `CCOc1ccccc1NC(=O)CCS(=O)(=O)c1cccc2nsnc12`, the “hERG current change (%, negative = inhibition) at 10uM” value amounted to 1.09%.
As for `Cc1cc(Cl)c(OCCCCNC(C)(C)C)c(Br)c1.O=C(O)C(=O)O`, the figure is -40.7%.
As for `Cc1nn(CC(C)C)c(Cl)c1C(=O)N(c1ccc(Cl)cc1F)S(C)(=O)=O`, the figure is 10.9%; as for `COc1ccccc1NC(=O)c1cc(-c2cc(OC)c(OC)c(OC)c2)nc2ccccc12`, 3.32%.
As for `COc1ccc2c(c1O)C(=O)c1ccccc1C2=O`, the figure is 3.24%; as for `CCOC(=O)N1CCC2(CC1)CC(=O)c1cc(O)ccc1O2`, -4.03%.
On to `CCc1ccc(OCCCC(=O)Nc2ccc(S(N)(=O)=O)cc2)cc1`, for which the “hERG current change (%, negative = inhibition) at 10uM” value amounted to 13.5%.
For the compound `O=C(NNC1CC(=O)N(c2cccc(Cl)c2)C1=O)c1cccnc1` (centres unmarked), the “hERG current change (%, negative = inhibition) at 10uM” value is recorded as 1.47%.
As for `N#Cc1cccc(OC(=O)c2ccc3c(=O)n4c(nc3c2)CCC4)c1`, the figure is -20%.
As for `COc1ccccc1-c1cc(C(F)(F)F)nc(S(=O)(=O)CCCC(=O)N2CCCCC2C)n1` (centres unmarked), the figure is -2.71%; as for `COc1ccc(OC)c(C(c2nnnn2Cc2ccccc2)N2CCN(C3CCCCC3)CC2)c1.Cl` (centres unmarked), -53.9%; as for `N=C1/C(=C\c2ccc(Br)o2)C(=O)N=C2SC(CC(=O)N3CCCCC3)=NN12`, 6.66%.
As for `O=C(NNC(=O)C12CC3CC(CC(C3)C1)C2)c1ccco1`, the figure is 26.7%.
As for `CC(C)CNS(=O)(=O)c1ccc(CCC(=O)N2CCN(Cc3ccccc3)CC2)cc1`, the “hERG current change (%, negative = inhibition) at 10uM” value is on record as -35.2%.
Turning to `CCOc1cc(/C=N/O)cc(Br)c1OC`, the “hERG current change (%, negative = inhibition) at 10uM” value is given as -4.85%.
Regarding `CC(C)(C)OC(=O)NCCCCCNC(=O)c1[nH]cnc1C(=O)Nc1nccs1`, the “hERG current change (%, negative = inhibition) at 10uM” value is listed as -5.06%.
Regarding `CC(C)c1ccc(S(=O)(=O)N2CCN(CC(=O)c3ccc(O)c(O)c3)CC2)cc1`, the “hERG current change (%, negative = inhibition) at 10uM” value is recorded as -24.6%.
For `COc1ccc(C(=O)OC(COc2ccccc2)Cn2ccnc2)cc1` (centres unmarked), the “hERG current change (%, negative = inhibition) at 10uM” value was -41.6%.
For the compound `Cc1cccc(-c2nnc(N)s2)c1`, the “hERG current change (%, negative = inhibition) at 10uM” value is recorded as 9.79%.
Next, `COC(=O)C1=C(c2cccc(OCc3ccccc3)c2)C[C@@H]2CC[C@H]1N2C(=O)NCc1ccc(OC)c(OC)c1`: 5.75%.
Turning to `O=C(CCCN1C(=O)c2ccccc2C1=O)NCCN1C(=O)S/C(=C\c2cccs2)C1=O`, the “hERG current change (%, negative = inhibition) at 10uM” value is reported as -16.4%.
Take `Cc1ccccc1C(=O)NC1CCN(CC(=O)Nc2ccc(N(C)C)cc2)CC1`: the “hERG current change (%, negative = inhibition) at 10uM” value stood at 12.8%.
Next, `COc1cccc(CN2CC(C(=O)NCCc3ccccc3C(F)(F)F)CCC2=O)c1` (centres unmarked): -23.6%; `Cc1ccc(Nc2c([N+](=O)[O-])c(=O)oc3ccccc23)cc1C`: -34%; `CCCN(C(=O)C(C)Oc1cccc(Cl)c1)c1c(N)n(Cc2ccccc2)c(=O)[nH]c1=O` (centres unmarked): 1.41%.
For the compound `COc1cc(C2c3c(n[nH]c3C)C(=O)N2c2ccc(C)cc2)ccc1O` (centres unmarked), the “hERG current change (%, negative = inhibition) at 10uM” value stood at 0.893%.
With `CCNC(=S)NNC(=O)c1ccc(OC)cc1`, the “hERG current change (%, negative = inhibition) at 10uM” value is recorded as 13.9%.
Take `Cc1ccc(NC2CCCN(C(=O)CCc3scnc3C)C2)cc1C` (centres unmarked): the “hERG current change (%, negative = inhibition) at 10uM” value is -1.81%.
As for `O=C(Cc1ccccc1)Nc1ncccc1Cl`, the figure is 6.6%; as for `Cc1ccc(Nc2nc(CSc3nnnn3-c3ccccc3)cc(=O)[nH]2)cc1`, 2.42%.
For `CCOC(=O)CSc1ccc(S(=O)(=O)N(CC)CC)cc1[N+](=O)[O-]`, the “hERG current change (%, negative = inhibition) at 10uM” value was -27.2%.
Next, `Cc1ccc(-n2ncc3c(=O)n(CC(=O)NC4CCCC4)cnc32)cc1C`: 5.66%; `Cc1ccc2cc(CCNC(=O)C(=O)c3c(C)[nH]c4ccccc34)c(=O)[nH]c2c1`: -7.95%; `COc1ccc2c(C)nc(Nc3nc(-c4ccccc4)cc(=O)[nH]3)nc2c1`: 2.47%.
For the compound `CCOc1ccc(NC(=O)CCC(=O)NNS(=O)(=O)c2ccccc2[N+](=O)[O-])cc1`, the “hERG current change (%, negative = inhibition) at 10uM” value is 6.48%.
As for `O=C(CN(C(=O)c1csnn1)c1cccc(Cl)c1)NC1CCCC1`, the figure is -2.38%; as for `CC(C)N(CCCNC(=O)c1nn(C)c2c1CS(=O)(=O)c1ccccc1-2)Cc1ccccc1`, -34.5%; as for `CCn1nnc2cc(C(=O)Nc3cc(OC)cc(OC)c3)ccc21`, 8.81%.
As for `CC(=O)N(CC(=O)Nc1nn(-c2ccccc2)nc1C(N)=O)Cc1ccccc1`, the figure is -14.9%; as for `Cc1ccccc1NC(=O)CN(c1ccc(F)cc1)S(C)(=O)=O`, 8.71%; as for `COC(=O)C1=CN(Cc2ccc(OC)c(OC)c2)C=C(C(=O)OC)C1c1ccc(O)cc1`, 6.18%.
As to `COc1ccc(NC(=O)CC2C(=O)N(c3cccc(C)c3)C(=O)N2C2CCCCC2)cc1` (centres unmarked), the “hERG current change (%, negative = inhibition) at 10uM” value is recorded as -14.5%.
As for `O=C(Cc1ccc(Cl)cc1)NCCc1cnc[nH]1`, the “hERG current change (%, negative = inhibition) at 10uM” value is 13.5%.
Next, `CC(C)(C)CC(C)(C)NC(=S)Nc1ccc(S(=O)(=O)N2CCOCC2)cc1`: -5.67%.
In the case of `N#Cc1nc(-c2cccs2)oc1N1CCN(Cc2ccccc2)CC1`, the “hERG current change (%, negative = inhibition) at 10uM” value was determined as 1.61%.
Turning to `COc1ccc(N2CCN(CCNC(=O)CCNS(=O)(=O)c3cccs3)CC2)cc1`, the “hERG current change (%, negative = inhibition) at 10uM” value was -24.7%.
On to `Cc1cc(C)c(CN2CCC(CO)(CCOc3ccccc3)CC2)cc1C`, for which the “hERG current change (%, negative = inhibition) at 10uM” value was -65.2%.
Regarding `CC(C)CC(NC(=O)C1CCC(C)CC1)C(=O)Nc1cccnc1` (centres unmarked), the “hERG current change (%, negative = inhibition) at 10uM” value is reported as 6.13%.
Next, `Cc1cc(C)nc(NC(=O)c2ccc(Cl)c(Cl)c2)n1`: -7.33%; `COc1cc(Cl)c(C)cc1NC(=O)COC(=O)C1=COCCO1`: 19.4%.
Take `O=C(Nc1ccccc1)c1cccc(N2C(=O)C3C4C=CC(C5CC45)C3C2=O)c1` (centres unmarked): the “hERG current change (%, negative = inhibition) at 10uM” value was -7.8%.
For `CC(c1ccccc1)N(CC(=O)NC1CCCCC1)S(=O)(=O)c1cccc(C(F)(F)F)c1` (centres unmarked), the “hERG current change (%, negative = inhibition) at 10uM” value is given as -7.36%.
Next, `CCN1C(=O)CS/C1=N\S(=O)(=O)c1ccccc1`: -5.21%; `COc1ccc(CN(Cc2cc3ccc(C)cc3[nH]c2=O)Cc2nnnn2C2CCCC2)cc1`: -21.4%; `O=C1c2ccccc2C(=O)N1CCCSc1nc2ccccc2o1`: -0.0418%.
Consider `CCc1nccn1S(=O)(=O)c1ccc2ccc(C)cc2c1`, for which the “hERG current change (%, negative = inhibition) at 10uM” value is listed as 8.75%.
Next, `CCN(CC(=O)Nc1ccccc1OC)C(=O)c1cc(-c2ccccc2)nn1-c1ccccc1`: -36.9%.
On to `CNC(=O)/C(=C\c1ccc2c(c1)OCO2)NC(=O)c1ccc(Br)cc1`, for which the “hERG current change (%, negative = inhibition) at 10uM” value is on record as -56.5%.
As for `COc1ccc(-c2csc(NC(=O)CSc3nnnn3C)n2)c(OC)c1`, the figure is 15.9%.
`CCOC(=O)c1cc(-c2ccc(/C=C3/C(=O)N(c4ccc(C(=O)O)cc4)N=C3C)o2)ccc1Cl`: the “hERG current change (%, negative = inhibition) at 10uM” value is listed as 0.757%.
Next, `CCCCNC(=O)C(=O)NC(C)CCc1ccccc1` (centres unmarked): -4.62%; `O=C(CCC1CCCC1)N1CCC(N2CCN(c3ccccc3)CC2)CC1`: -66.6%; `COc1cccc(-n2c(C)nc3c(cnn3-c3ccc(Cl)cc3)c2=O)c1`: -10.2%.
As for `CN(C)/N=C/C=C1\CCC/C(=C\c2ccc(F)c(F)c2)C1=O`, the figure is 13%.
Next, `CCN(CC)C1CCN(C(=O)c2cc(COc3ccccc3SC)on2)C1` (centres unmarked): -68.4%.
For `Cc1sc2ncn(CC(=O)N3CCCCC3)c(=O)c2c1C`, the “hERG current change (%, negative = inhibition) at 10uM” value was 7.16%.
As to `O=C1CCC/C(=N\NC(=O)c2ccc(COc3ccccc3-c3ccccc3)cc2)C1`, the “hERG current change (%, negative = inhibition) at 10uM” value came to 5.27%.
On to `COc1cc(Cl)c(C)cc1NC(=O)COC(=O)c1ccc(CN2CCCC2=O)cc1`, for which the “hERG current change (%, negative = inhibition) at 10uM” value is on record as -11.5%.
As for `O=C1C=CCCC1`, the figure is 15.1%; as for `COc1cc(NC(=O)C2CC(=O)NC3=C2C(=O)CCC3)c(OC)cc1Cl` (centres unmarked), -5.71%; as for `[2H]c1c([2H])c([2H])c(C(=O)c2sc(N3CCCCCC3)nc2-c2ccccc2)c([2H])c1[2H]`, -9.11%.
As to `Cc1cc(=O)[nH]c(-n2nc(C)cc2C)n1`, the “hERG current change (%, negative = inhibition) at 10uM” value amounted to 3.48%.
Next, `CN(CC(=O)Nc1ccccc1C(F)(F)F)C(=O)Cc1ccc(S(=O)(=O)N2CCOCC2)s1`: -1.45%.
